# Source: the supplement of paper PMC4466236
# Whole data set: some 33,000 sequences, median “E-score (dimensionless, -0.5 to 0.5)” near -0.058, cut for the highest 2% near 0.35. The list shows a part of the results.
# Test system: MvaT
# Assay: PBM 8-mer E-score (mean of HK and ME arrays) (E-score (dimensionless, -0.5 to 0.5)); higher = stronger relative binding preference; most listed sequences are background and not binding sites
# Description: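 Protein binding microarray: GST-tagged full-length MvaT (P. aeruginosa PAO1) bound to two universal double-stranded 60-mer arrays (ME and HK), each with a constant 25-mer primer and a variable 35-mer region covering all 8-mers. The 8-mer E-score (rank-based, range -0.5 to 0.5, >0.45 = specific binding) is the mean of the two arrays.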
row,Sequence,PBM 8-mer E-score
1,CCAGTCAA,0.0826
2,AACGGATA,0.0541
3,ACGGGCAC,-0.284
4,ATGCGAAT,0.222
5,AATAATGA,0.361
6,GAAAATGA,0.0956
7,AAAGGGGG,-0.207
8,TTGACAAA,0.266
9,ACCTGATA,0.08
10,CCCGTTCA,-0.129
11,CCAACAGG,-0.155
12,CTATATAC,0.377
13,ACGATCCC,-0.0808
14,CCAAGCGG,-0.203
15,ACAATCGT,-0.12
16,GGTACTAA,0.0989
17,GTGGCTAA,-0.0199
18,ACACGAGT,-0.0299
19,AGAGCAAG,-0.141
20,CGGAATTA,0.19
21,CGTCCATA,0.0563
22,GCGGTATA,0.232
23,GGCCACCA,-0.218
24,AGATCACA,-0.0311
25,AAGGCTAT,-0.116

row,Sequence,PBM 8-mer E-score
1,AGGCAGAA,-0.226
2,CATGTGGC,-0.181
3,CCCGAAAG,-0.162
4,ATTGCAAG,0.0414
5,GGCGCGCC,-0.233
6,ACTACAAT,0.313
7,AGAGATCC,-0.183
8,CTAGCCGC,-0.166
9,CCACTTAC,0.0232
10,AATCAAAC,0.281
11,CCCCCCGG,-0.32
12,GGTTCATA,-0.00965
13,ATTTCCCA,0.132
14,ATAACACG,0.221
15,AGGCATCC,-0.375
16,GGAAGTTA,0.227
17,CGATCTAC,-0.244
18,GTTGCTAA,0.0853
19,CTGTGAAG,-0.101
20,CCCTGTGA,-0.176
21,CCTGTTAC,-0.0778
22,CGAACAGC,-0.223
23,CTCCGCAC,-0.155
24,GCCCTCAC,-0.201
25,TAATCAGA,0.178

row,Sequence,PBM 8-mer E-score
1,CATTTCAC,0.0481
2,CATCTGCC,-0.295
3,CGCTCTCC,-0.326
4,ACATGAAT,0.284
5,CCTGGGGC,-0.381
6,AACTGCTC,-0.162
7,AGATTCCC,-0.178
8,ACGATGGG,-0.189
9,CTATAACA,0.297
10,CCCCTCCA,-0.322
11,AGGCTTAT,-0.0613
12,ATAACGGA,0.194
13,ATAGCCTA,-0.165
14,CGTGCAAC,-0.0835
15,GTCTTAGA,-0.0209
16,AATACAGG,0.219
17,GCTGCTAA,-0.101
18,GGGTTACC,-0.217
19,AACAGATC,-9.21e-05
20,GTTGGCTA,-0.0873
21,ACGCGCCC,-0.188
22,CCATTATC,0.15
23,CCAGTCCG,-0.243
24,ATCAAACC,0.0801
25,GCATAGCC,-0.311

row,Sequence,PBM 8-mer E-score
1,AGACTACC,-0.0133
2,ATCCAGTC,-0.147
3,AAGCGGTC,-0.186
4,ACGTTCAG,-0.194
5,GCGGTACA,0.0892
6,AGCACACT,-0.0782
7,AACGAGTA,0.0595
8,CGTGGATA,0.112
9,ATCAGATC,-0.0989
10,CAATTGTA,0.209
11,GATGGTAC,-0.23
12,ACAACCCC,-0.143
13,AGGGACTG,-0.203
14,ATACGCGG,-0.0783
15,ATAGCCCG,-0.129
16,ACGATTAG,-0.109
17,GTGTTTAA,0.315
18,GCAAAAGA,-0.148
19,CTGTTGCC,-0.134
20,GACTTTTA,0.281
21,ATAGACCG,-0.0226
22,CTAACGAA,0.157
23,GGGTGAAC,0.0197
24,CTGTTCGA,1.94e-05
25,AAGTGATT,0.127

row,Sequence,PBM 8-mer E-score
1,ATTCCTCC,-0.163
2,CTGCCGTC,-0.306
3,GAAATCCA,-0.0641
4,GGTTAATA,0.276
5,CAGCTGGG,-0.199
6,CTTCGCTC,-0.248
7,CTTCCGGA,-0.124
8,GTTCAATA,0.28
9,AAGATCCA,-0.105
10,CTTTCTTA,0.149
11,TATCCCCA,0.0591
12,GAATAGTC,0.00338
13,AGTACGCG,-0.114
14,GACTCGGC,-0.21
15,GCGTAATA,0.244
16,GCTATACA,0.135
17,ACCATAGT,0.0576
18,GTGTCTTA,0.0753
19,ATGGGAAA,0.0599
20,CACTCCAA,-0.0816
21,CAAAAGTC,-0.0392
22,ATAGCTCC,-0.184
23,CGCCATCC,-0.338
24,GTAAACAA,0.0823
25,CGTCTCAA,-0.0154

row,Sequence,PBM 8-mer E-score
1,AAAGAAAA,0.215
2,GTAATAGA,0.164
3,ATTCTAAC,0.154
4,GCTTACGA,-0.023
5,CAATAGCA,0.114
6,ACTACGCC,-0.129
7,ATAACATC,0.302
8,AATTTACA,0.269
9,AGTATACG,0.185
10,CCCCTTAC,-0.254
11,TGCGCCAA,0.114
12,CGGGGTCA,-0.246
13,CCTGGGAC,-0.214
14,ACTGGGTC,-0.145
15,TGGCGCCA,-0.352
16,GGAAAGAA,0.0435
17,ATGGTATA,0.249
18,CCCTCCCA,-0.169
19,AACAAGTA,0.343
20,AACCTCTG,-0.274
21,AGACAGCG,-0.185
22,GTCGGTAA,-0.0268
23,GTTGCGAA,-0.00171
24,TCGGGCAA,-0.0605
25,AGTCGGCC,-0.23

row,Sequence,PBM 8-mer E-score
1,GGGTTTAA,0.187
2,ATATAAAC,0.433
3,CGCACGGC,-0.246
4,ATGATTAC,0.206
5,GAGGAATC,-0.0683
6,AATAACCA,0.265
7,AATACAAC,0.316
8,CTTACCAC,-0.14
9,TAGATATA,0.368
10,ACATTCAG,0.127
11,AGCCAGTA,-0.0101
12,AAATAAAA,0.419
13,AAACGAGT,0.0937
14,AACGATGC,-0.0999
15,AGTTTCAA,0.177
16,CTCAATGC,-0.14
17,ATGTTGAA,0.196
18,CCGTGCCC,-0.184
19,AGCTCCTC,-0.303
20,TCCACGAA,-0.0307
21,CATGAGGA,-0.201
22,CCCCACGA,-0.139
23,GACATTAA,0.222
24,CGTGAAAC,-0.0856
25,ACAATGAT,0.234

row,Sequence,PBM 8-mer E-score
1,GTGAGGAA,-0.0156
2,ACGCAAAT,0.0432
3,CGACTTGC,-0.238
4,TACAGCTA,-0.123
5,ACAGGATC,-0.123
6,ACGTTTAG,-0.00724
7,GCCAATTA,0.0866
8,CGTGTGTC,-0.228
9,ATGCTTCG,-0.069
10,CGGGACTA,-0.0357
11,AAAATATG,0.251
12,GAAACGAA,0.0408
13,CTCACGTC,-0.216
14,CGAAGGGC,-0.24
15,CCCAATTA,0.271
16,CCACATGA,-0.161
17,GAAGTGAC,0.0462
18,AGGAAACT,-0.0294
19,ACCCTATA,0.129
20,ATTCCATC,-0.0422
21,CTTATCAC,0.0776
22,GGATGCGA,-0.256
23,GGCCTTAC,-0.0545
24,CGGGCGGA,-0.237
25,AAAGATAA,0.274

row,Sequence,PBM 8-mer E-score
1,CAGGACCG,-0.234
2,CTACAGGA,-0.126
3,AAATGATC,0.0521
4,CGGGCTCC,-0.173
5,ACGTATAT,0.29
6,CCCGAAAC,-0.161
7,TGCCGACA,-0.122
8,CCATTGTA,0.134
9,TACAAGCA,0.0373
10,AATGCACT,0.0117
11,TGATGCAA,0.036
12,GACAAACA,0.174
13,ATCTGGTC,-0.0486
14,GTCTAGAA,-0.163
15,TATTTAGA,0.308
16,CTGAAGGC,-0.394
17,CATCCCCG,-0.178
18,CAAAATTC,0.0693
19,ACCCGGAA,-0.0434
20,GAAAGTCA,-0.0606
21,AAAGCCCA,-0.231
22,AAGAATTA,0.295
23,ATGATAGC,-0.0294
24,TCACGAGA,-0.131
25,CACTCCTG,-0.121

row,Sequence,PBM 8-mer E-score
1,ACTGAAGC,-0.224
2,ACAATAAT,0.401
3,CGACCTCG,-0.227
4,AGCCGCAA,-0.0521
5,CCGCTTTC,-0.181
6,GCACCAGA,-0.178
7,ATAGTCAG,0.0889
8,CAAACGCG,-0.0844
9,GGGCTTCA,-0.28
10,ATGCAAAG,0.085
11,GCGTTAGA,-0.0834
12,AATTAACG,0.28
13,ATTACCTC,0.00993
14,AACGCGAC,-0.0208
15,ATACGGTG,-0.181
16,AACTACCT,0.144
17,GCGCAACA,0.064
18,CCGGTAAC,-0.0396
19,ACGACGTA,-0.0929
20,CTAAAGCC,-0.122
21,ATAAGTTG,0.342
22,ACGATGCC,-0.0988
23,ATCAACAA,0.217
24,GTACGTGA,0.0149
25,AGGAAGTG,-0.0167

row,Sequence,PBM 8-mer E-score
1,CCGACACC,-0.265
2,ATGAAATG,0.155
3,GGCTGAAC,-0.0977
4,GCGTCTTA,0.0293
5,AGGACGAG,-0.247
6,ACTCATAT,0.261
7,AAAGTGGA,-0.185
8,CGCGCTTA,0.0087
9,CATTTACA,0.339
10,CTAGTTTA,0.306
11,GAGAGGCC,-0.32
12,AATTGTGT,0.251
13,GGTTGATA,0.124
14,ACCCTCTG,-0.224
15,CTTTGCGA,-0.129
16,AAGGCCTA,-0.149
17,ACTTGACG,-0.027
18,GCATGTTA,0.182
19,GAAAGGTC,-0.213
20,CGTGTTAG,-0.118
21,AACTGGCA,0.0733
22,CCGCATGC,-0.119
23,CCCAGCAG,-0.187
24,CGGTACCC,-0.26
25,AACAATGG,0.132

row,Sequence,PBM 8-mer E-score
1,GCGAATAC,0.0443
2,AACTCAAT,0.216
3,CCAGGCCA,-0.316
4,AATGTTCG,0.0127
5,TAGACAAA,0.115
6,CTGCATAC,0.0252
7,ATACTTTA,0.343
8,ATCTCTAG,-0.00763
9,CCGTCCCC,-0.319
10,AAACGACT,0.132
11,CTATCATA,0.226
12,CTGTTCAA,-0.0354
13,CACGCTTC,-0.248
14,CCCATTTC,-0.0307
15,GTGCGCTA,-0.186
16,AAATAGCT,0.11
17,CAAAGGCA,-0.255
18,TCGTCCAA,-0.12
19,ATGGGAAT,0.16
20,GCATGCCA,-0.156
21,CAGCATCA,-0.0605
22,GCCATTTA,0.134
23,TATTTTGA,0.259
24,ACTATACT,0.228
25,TTCCCCAA,-0.0342

row,Sequence,PBM 8-mer E-score
1,CAAGTTAA,0.332
2,AATCGCAG,-0.122
3,AATATCGG,0.237
4,GTTGCCAA,0.0204
5,CGGTCTGA,-0.16
6,AAGCAGCA,-0.0495
7,ATTAGTCA,0.226
8,ATTCTGGA,0.0264
9,CGAGGAAC,-0.169
10,AGAAATGC,0.0601
11,ACTATTAA,0.411
12,CAGTTGGC,-0.199
13,ACGCGATA,0.139
14,GGCCATTA,0.0399
15,CGTGTACC,-0.149
16,CACATACG,-0.0645
17,AATGGAGT,-0.091
18,ACCTAGCT,-0.0871
19,ATGTCCTG,-0.157
20,AAAATCAT,0.0877
21,GACCACCA,-0.109
22,ATTGGATG,0.131
23,AGGTCTTC,-0.204
24,GATCTTTA,0.13
25,AAACCCGG,-0.224

row,Sequence,PBM 8-mer E-score
1,GTGCCCCA,-0.101
2,AATTTCTA,0.175
3,CAGATAAA,0.112
4,GGGCGATA,-0.146
5,TCAGACAA,-0.126
6,AAGGGCTA,-0.144
7,CGAGGATC,-0.201
8,GGGTGACC,-0.231
9,CCTGGGAG,-0.293
10,GCGATGCA,-0.183
11,GAAGATCA,0.0645
12,AACGTTAC,0.101
13,AACTATAC,0.227
14,TATCCGAA,0.115
15,GAGAGCCA,-0.262
16,CCGGGTTC,-0.185
17,GCCAGGTA,-0.151
18,CCAGGCTC,-0.25
19,AAGATCAC,-0.153
